Test results as given in PubChem BioAssay AID686978 (National Center for Advancing Translational Sciences (NCATS), 2013).
Values joined by “and” are separate entries in the source; they are usually repeats but may differ in a detail not shown here. Equal entries are not always repeated. Out of some 420,000 compounds screened, about 64,000 (15%) were called active. Inconclusive means that the source gave no clear call. Such entries were picked first, then a sample of the others. Calls come from the whole dose curve; as a rule, active = well fitted inhibition curve with a large enough effect; inconclusive = small, poorly fitted or top-dose-only effect; inactive = flat fitted curve, though single readings scatter. Potencies of inconclusive entries are doubtful fits and often do not repeat.

assay: qHTS for Inhibitors of human tyrosyl-DNA phosphodiesterase 1 (TDP1): qHTS in cells in absence of CPT; conditions: DT40 Tdp1-/- hTDP1 cells, no CPT, ATP luminescence, 48 h; activity change, negative = growth inhibition: at 46.2 µM (top of the series) unless noted; note: nearly all actives have a fitted effect of over 55% in size
Summary of the method: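 Chicken DT40 Tdp1-/- cells complemented with human TDP1, screened without camptothecin (DMSO vehicle only), 400 cells/well. Compounds pin-transferred, cells incubated at 37 °C for at least 48 hr. Growth read as ATP-dependent luminescence (CellTiter-Glo, 30 min at RT).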
% is set by controls: 0 for no effect and ±100 for the full control effect; potency is the fitted concentration of half-maximal effect; tags give direction and shape of the fitted curve.

| Structure (SMILES) | activity change, negative = growth inhibition | Potency |
| --- | --- | --- |
| C[C@@H]1CN([C@H](C)CO)C(=O)CCCn2cc(nn2)CO[C@H]1CN(C)C(=O)Nc1ccc(-c2cccs2)cc1 | inactive: -27.6% | – |
| C/C=C(/C)C(=O)O[C@@H]1Cc2c(ccc3ccc(=O)oc23)OC1(C)C | – | inconclusive: 6.51 µM [inhibitor, full curve, poor fit] |
| CN(C)CCN(Cc1ccccc1)C(c1ccnc2ccccc12)c1nnnn1-c1ccc2c(c1)OCCO2 (stereo not given) | – | inconclusive: 20.6 µM [inhibitor, single point] |
| O=C(NN1C(=O)C2C3C=CC(C4CC34)C2C1=O)c1ccc(Cl)c(Cl)c1 (stereo not given) | – | inconclusive: 32.6 µM [inhibitor, single point] |
| O=C(Nc1nccs1)Oc1ccccc1 | inactive: -11.5% | – |
| O=C(CCc1nc(-c2ccccc2)no1)Nc1cccnc1 | – | inconclusive: 18.4 µM [inhibitor, single point] |
| Cc1c(NC(=O)c2cccc(NC(=O)COc3ccccc3C#N)c2)c(=O)n(-c2ccccc2)n1C | inconclusive: -32.6% [inhibitor] | – |
| O=C(N/N=C/c1cccc(Cl)c1)C1CCCC1 | inactive: 4.65% | – |
| O=c1c2nnn(-c3ccccc3)c2ncn1C/C=C/c1ccccc1 | – | active: 25.9 µM |
| O=C(Cn1cc(SCc2ccccc2F)c2ccccc21)N1CCCCCC1 | – | inconclusive: 18.4 µM [inhibitor, single point] |
| CCCCOC(=O)/C(=C/C=C/c1ccccc1)NC(=O)c1ccccc1 | – | inconclusive: 29.1 µM [inhibitor, single point] |
| CC(=O)c1cccc(OC(=O)c2ccccc2)c1 | inactive: 14.2% | – |
| CCn1c(SCC(=O)N2CCN(c3ccc(Cl)cc3)CC2)nc2ccccc2c1=O | – | inconclusive: 13 µM [inhibitor, single point] |
| Cc1ccc(N(CC(=O)NC2CCCCC2)C(=O)CCC(=O)Nc2nccs2)cc1 | inactive: -23.2% | – |
| CC(=O)N/C(=C\c1ccc(F)cc1)C(=O)OCc1ccccc1 | inactive: 1.3% | – |
| COc1cccc(CNC(=O)[C@@H]2CCCN2C(=O)[C@@H]2CCCN2C(=O)c2cccc(OC)c2)c1 | inactive: -23.3% | – |
| CC(=O)c1cccc(S(=O)(=O)Nc2cc(C(F)(F)F)ccc2N2CCOCC2)c1 | inactive: -8.93% | – |
| CCOC(=O)c1ccc(Nc2nc3nonc3nc2Nc2cccc(C)c2C)cc1 | – | active: 2.06 µM |
| O=C(CN1CCc2ccccc21)Nc1ccc2c(c1)OCCCO2 | – | inconclusive: 13 µM [inhibitor, single point] |
| COC(=O)c1ccc(C(=O)OC)c(NC(=O)CN(C)Cc2cccc(Cl)c2Cl)c1 | – | inconclusive: 20.6 µM [inhibitor, single point] |
| COc1ccc(-c2nc3c4ccccc4ccn3c2CN2CCCCC2)cc1 | – | inconclusive: 23.1 µM [inhibitor, single point] |
| CC(OC(=O)CCc1nc2ccccc2[nH]c1=O)C(=O)c1ccccc1 (stereo not given) | – | inconclusive: 20.6 µM [inhibitor, single point] |
| CCOC(=O)c1ccccc1NS(=O)(=O)c1ccc(C)cc1 | – | inconclusive: 29.1 µM [inhibitor, single point] |
| N#CC(C(=O)NCCc1ccccc1)c1nc2ccccc2nc1N1CCOCC1 (stereo not given) | – | inconclusive: 29.1 µM [inhibitor, single point] |

| Structure (SMILES) | activity change, negative = growth inhibition | Potency |
| --- | --- | --- |
| CCc1nnc(NC(=O)C2Cc3ccccc3CN2S(=O)(=O)c2c(C)c(C)cc(C)c2C)s1 (stereo not given) | – | inconclusive: 29.1 µM [inhibitor, single point] |
| Cc1cc(OCCn2c(CCNC(=O)C3CCCCC3)nc3ccccc32)ccc1Cl | – | inconclusive: 16.4 µM [inhibitor, single point] |
| CC(C)Oc1ccc(S(=O)(=O)N2CCOCC2)cc1NC(=O)C1CCC1 | inactive: -5.21% | – |
| COc1cc2[nH]c3c(=O)n4c(nc3c2cc1OC)SCCC4 | – | inconclusive: 29.1 µM [inhibitor, single point] |
| CC(C)CN(C(=O)c1ccc([N+](=O)[O-])s1)c1c(N)n(Cc2ccccc2)c(=O)[nH]c1=O | – | inconclusive: 29.1 µM [inhibitor, single point] |
| COc1ccccc1CCNC(=O)C(=O)NCC1OCCN1S(=O)(=O)c1cccs1 (stereo not given) | – | inconclusive: 29.1 µM [inhibitor, single point] |
| CNc1nc(C23CC4CC(CC(C4)C2)C3)cs1 | – | inconclusive: 11.6 µM [inhibitor, partial curve] |
| C[C@]12CCC[C@H](O1)c1c(cc3c(c1O)C(=O)c1c(O)cc(O)cc1C3=O)O2 | – | inconclusive: 29.1 µM [inhibitor, single point] |
| CC1(C(=O)O)CCC(C(=O)NC2CCCCCC2)C1(C)C (stereo not given) | inactive: 5.79% | – |
| CC(C)CCN1CCC(Cc2ccccc2)(NC(=O)c2ccccc2)C1=O (stereo not given) | – | inconclusive: 29.1 µM [inhibitor, single point] |
| O=S(=O)(Nc1nc2ccccc2s1)c1cnc(Cl)c(Br)c1 | – | inconclusive: 20.6 µM [inhibitor, single point] |
| COc1ccccc1C(=O)N[C@@H]1c2ccccc2C2(CCN(Cc3cccnc3)CC2)[C@H]1O | – | inconclusive: 25.9 µM [inhibitor, single point] |
| COC(=O)c1cc2oc(C)cc2n1CC(=O)N(C)c1ccccc1 | inactive: -16.9% | – |
| CC(C)(C)N/C=C(\C#N)S(=O)(=O)c1ccc(Br)cc1 | inactive: -3.78% | – |
| Cc1ccccc1N1CCN(S(=O)(=O)c2ccccc2)CC1 | – | inconclusive: 10.3 µM [inhibitor, partial curve] and inconclusive: 25.9 µM [inhibitor, single point] |
| CCc1ccccc1NC(=O)N1CCc2ccccc21 | – | inconclusive: 8.2 µM [inhibitor, partial curve, poor fit] |
| CCN(CC)CCCN(C(=O)c1ccccc1F)c1nc(-c2ccc(OC)cc2)cs1 | – | inconclusive: 25.9 µM [inhibitor, single point] |
| Cc1cccc(CC(=O)NCCn2c(C)cc3ccccc32)c1 | – | inconclusive: 29.1 µM [inhibitor, single point] |
| CCOc1ccc(CCNC(=O)COC(=O)c2ccc3c(c2)OCCO3)cc1OCC | inactive: -27.7% | – |
| COc1ccc(C(=O)c2ccc3oc(-c4ccc(OC)cc4)c(-c4ccc(O)cc4)c3c2)cc1 | – | active: 9.2 µM |
| CN(C(=O)CSc1cc(C(=O)c2nccn2C)c2ccccc2n1)c1ccccc1 | – | active: 18.4 µM |
| CSCCC(NC(=O)c1ccccc1)C(=O)N1CCN(Cc2ccc(Cl)cc2)CC1 (stereo not given) | – | active: 10.3 µM |
| CC1CCCN(C(=S)Nc2ccc(S(=O)(=O)N3CCCCC3)cc2)C1 (stereo not given) | – | inconclusive: 29.1 µM [inhibitor, single point] |
| OCC1(Cc2ccccc2)CCN(Cc2cccc(F)c2F)CC1 | – | inconclusive: 18.4 µM [inhibitor, single point] |

| Structure (SMILES) | activity change, negative = growth inhibition | Potency |
| --- | --- | --- |
| CC(C)=CC(=O)N1CCC(Oc2cccc(C(=O)NCc3ccccn3)c2)CC1 | inconclusive: -33.9% [inhibitor] | – |
| COc1cc(S(=O)(=O)N(Cc2ccccc2)Cc2ccccn2)ccc1-n1cnnn1 | – | inconclusive: 15.8 µM [inhibitor, single point] |
| O=C(Nc1nnc(-c2ccccc2Cl)o1)c1ccco1 | – | inconclusive: 29.1 µM [inhibitor, single point] |
| O=C1NC2C(NC(=O)N2C2CCCCC2)N1C1CCCCC1 (stereo not given) | – | inconclusive: 6.51 µM [inhibitor, single point] |
| O=C(NCc1ccccc1Cl)c1ccc(CS(=O)(=O)c2ccccc2)o1 | inactive: -22.8% | – |
| O=C(NCCN1CCOCC1)Nc1ccc(F)cc1 | inactive: 14.9% | – |
| CCOc1cc(S(=O)(=O)NC2CCCCCC2)ccc1F | – | inconclusive: 14.6 µM [inhibitor, partial curve, poor fit] |
| COc1ccccc1Cn1ccn(Cc2ccc(C)cc2)c(=O)c1=O | – | inconclusive: 20.6 µM [inhibitor, single point] |
| COc1ccc(C)cc1NS(=O)(=O)c1ccc2c3c(cccc13)C(=O)N2 | – | inconclusive: 25.9 µM [inhibitor, single point] |
| Cc1cc(C)c(NC(=O)CSc2nccn2-c2cccc(Cl)c2)c(C)c1 | – | inconclusive: 20.6 µM [inhibitor, single point] |
| CCCCN(C)C(=O)C1CCN(C/C(C)=C/c2ccccc2)CC1 | inactive: -29.1% | – |
| Cc1cc2nc(C3CCCCC3)c(Cc3cccc(Cl)c3)n2c(C)c1Br | inactive: -25.2% | – |
| CN(CC(=O)NC1CCN(Cc2ccccc2)CC1)S(=O)(=O)c1ccc(Br)s1 | – | inconclusive: 29.1 µM [inhibitor, single point] |
| COc1ccc(CNC(=O)CCC2N=C3c4ccccc4N=C(SCc4ccccc4F)N3C2=O)cc1 (stereo not given) | – | inconclusive: 18.4 µM [inhibitor, single point] |
| Cc1ccc(O)c(/C=N/NC(=O)c2[nH]ncc2Br)c1 | – | active: 14.6 µM |
| O=C(Nc1cccc(Cl)c1Cl)c1ccc(-c2ccccc2)cc1 | – | inconclusive: 18.4 µM [inhibitor, single point] |
| Cc1cc(F)ccc1S(=O)(=O)Nc1ncnc2sccc12 | – | inconclusive: 29.1 µM [inhibitor, single point] |
| O=Cc1c(Sc2ccccc2)nc2ccccn2c1=O | – | active: 16.4 µM |
| Cc1ccc2c(Cl)c(Cc3ccccc3)c(=S)[nH]c2n1 | – | inconclusive: 29.1 µM [inhibitor, single point] |
| CCn1nc(C)c(/C=N/NC(=S)Nc2ccc(Cl)cc2Cl)c1C | – | active: 6.51 µM |
| Cc1cccc(NC(=O)/C(C#N)=C/c2ccc[nH]2)c1C | – | inconclusive: 29.1 µM [inhibitor, single point] |
| Cc1cc(-c2nc3ccccc3s2)ccc1N | – | inconclusive: 14.6 µM [inhibitor, partial curve, poor fit] |
